For orientation: % Inhibition means the relative decrease from the control value, in per cent.

The campaign covered roughly 150,000 compounds. About 540 (0.36%) showed an effect of 50% or more. Some of the results follow.

The source of these data is ChEMBL document CHEMBL4888484, “Replenishing the malaria drug discovery pipeline: Screening and hit evaluation of the MMV Hit Generation Library 1 (HGL1) against asexual blood stage Plasmodium falciparum ,using a nano luciferase reporter read-out” (2022).

For this assay, the system named is Plasmodium falciparum. The experiment in a line: Primary screen in NF54 nanoGlo assay, in single point, at 2uM, 72h; a lower Z score goes with more inhibition. To be noted: timepoint 72 hour. The assay is classed as functional, Erythrocyte.
Regarding `COc1cccc(CN2CCN(Cc3[nH]cnc3C)[C@@H]3CS(=O)(=O)C[C@@H]32)c1`, the “% Inhibition” value is -1% and the Z score is 0.21.

With `Cc1ccc2nc(NC(=O)CC[C@@H]3NC(=O)c4ccccc4NC3=O)sc2c1`, the “% Inhibition” value was -22% and the Z score is 2.84.

As for `Cc1ccc(NC(=O)c2coc(CN3CCN(Cc4ccc(F)cc4F)CC3)n2)cc1C`, the “% Inhibition” value is listed as -17% and the Z score amounted to 2.48.

For `CCc1ocnc1C(=O)N[C@H]1CCCc2occc21`, the “% Inhibition” value was -13% and the Z score stood at 1.3.

`COc1cccc(Cn2cnc3c4ccccc4n(Cc4cccc(OC)c4)c3c2=O)c1`: the “% Inhibition” value is recorded as -8% and the Z score was found to be 0.93.

Regarding `COc1ccc(-c2nc(N3CCCCC3)nc3nn(-c4ccc(Cl)c(Cl)c4)c(N)c23)cc1OC`, the “% Inhibition” value is given as -13% and the Z score was 2.06.

With `CCC(C)N(C(=O)c1ccccc1C(=O)N(C(C)CC)C(C)CC)C(C)CC` (centres undefined), the “% Inhibition” value is -8% and the Z score came out at 1.07.

Turning to `CC(C)(C)OC(=O)N1Cc2cnc(N3CCOCC3)nc2C1`, the “% Inhibition” value was -10% and the Z score turned out to be 1.21.

For the molecule `CC1CC(C)CN(S(=O)(=O)c2ccc(C(=O)OCC(=O)N3CC(=O)Nc4ccccc43)cc2)C1` (centres undefined), the “% Inhibition” value is -16% and the Z score worked out at 2.58.

For the molecule `CC1(O)CCC(NC(=O)CCCc2ccccc2)CC1` (centres undefined), the “% Inhibition” value is reported as -20% and the Z score came out at 3.9.

As to `Cc1cc(C)c2c(c1)NC(=O)[C@H]2CC(=O)Nn1cnnc1`, the “% Inhibition” value is given as -2% and the Z score amounted to 0.34.

Take `N#CCCN(Cc1ccncc1)CC1CC1`: the “% Inhibition” value is -2% and the Z score stood at 0.19.

As to `O=C(CC1CCN(C(=O)c2cc3ccccc3[nH]2)CC1)NCc1ccc2c(c1)OCO2`, the “% Inhibition” value was found to be 2% and the Z score was -0.19.

For `C[C@@]1(c2ncnn2-c2ccc3c(c2)OCCO3)CCCO1`, the “% Inhibition” value is reported as -2% and the Z score was determined as 0.31.

Consider `O=C(Nc1cccc(-c2nnco2)c1)c1ccc(F)cc1`, for which the “% Inhibition” value was -4% and the Z score was 0.57.

`Cc1cccc(NC(=O)c2ccnc(OCC3CCOCC3)c2)n1`: the “% Inhibition” value was -16% and the Z score came out at 3.03.

On to `Cc1noc(C)c1CCC(=O)Nc1ccc(N2CCNC(=O)C2)nc1`, for which the “% Inhibition” value is recorded as 6% and the Z score was -0.75.

In the case of `O=C1CCC(=O)N1C[C@H](O)Cn1c2ccc(Br)cc2c2cc(Br)ccc21`, the “% Inhibition” value was found to be 12% and the Z score is reported as -2.27.

`CC[C@H](C)N(C)CCNC(=O)c1cccc(F)c1`: the “% Inhibition” value is on record as -6% and the Z score is 1.09.

Take `CC(C)(C)c1cc(C(=O)Nc2ccn(C(C)(C)C(=O)O)n2)[nH]n1`: the “% Inhibition” value is reported as -1% and the Z score is recorded as 0.18.

Take `CC(NC(=O)[C@@H]1CCCO[C@H]1c1ccnn1C(C)C)c1ccc(F)cc1F` (some centres undefined): the “% Inhibition” value is reported as 4% and the Z score is on record as -0.71.

Turning to `Cc1cnc(C(=O)NCc2ccc(CN3CC(C)CC(C)C3)cc2)cn1` (centres undefined), the “% Inhibition” value was -15% and the Z score was determined as 2.92.

On to `O=C(c1ccoc1)N1CCC(C(=O)O)(n2cnc3ccccc32)CC1`, for which the “% Inhibition” value was -3% and the Z score was determined as 0.46.

As to `Cc1cc(C)cc(N2CCC(N[C@H]3CCNC3=O)CC2)c1`, the “% Inhibition” value stood at 0% and the Z score is given as -0.08.

Take `C[C@@H](NC(=O)NC1(C(N)=O)CCCCCC1)c1cccc2ccccc12`: the “% Inhibition” value was -1% and the Z score is 0.09.

For the molecule `COc1ccc(S(=O)(=O)N[C@H]2CCCc3cn(CC(F)(F)F)nc32)cc1`, the “% Inhibition” value is recorded as 32% and the Z score is given as -1.59.

Consider `Cc1cc2ncc(-c3nc([C@H]4CCOC(C)(C)C4)no3)c(C)n2n1`, for which the “% Inhibition” value is listed as -5% and the Z score is given as 0.67.

`CC1CN(C(=O)C2CCCc3sc(Nc4ccccc4)nc32)CCO1` (centres undefined): the “% Inhibition” value is -10% and the Z score came out at 1.04.

For `O=C(CN1C(=O)NC2(CCOCC2)C1=O)NCc1ccc2c(c1)OCO2`, the “% Inhibition” value worked out at 7% and the Z score is listed as -0.78.

As for `COc1cccnc1CC(=O)Nc1cc(C2CCCCC2)[nH]n1`, the “% Inhibition” value was -9% and the Z score came out at 1.42.

Regarding `CCc1ccc(OCCN2CCCS2(=O)=O)cc1`, the “% Inhibition” value was -15% and the Z score is recorded as 2.05.

Consider `O=C(C1CCN(c2nnc3ccc(Cl)cn23)CC1)N1CCOCC1`, for which the “% Inhibition” value was -11% and the Z score stood at 1.15.

Take `CCOc1ccc(S(=O)(=O)Cc2cc(C)no2)cc1`: the “% Inhibition” value was -3% and the Z score is 0.57.

Turning to `O=C(c1cnn2c1CCCC2)N1CCN(S(=O)(=O)c2cccc(F)c2)CC1`, the “% Inhibition” value was 0% and the Z score was determined as 0.04.

Turning to `CC(=O)N[C@H]1CCCN(C2CCN(c3ccc(F)c(F)c3)CC2)C1`, the “% Inhibition” value is -8% and the Z score was 1.54.

As for `Cc1ccc(N[C@@](C)(C(=O)N(C)Cc2cscn2)c2ccccc2)cc1`, the “% Inhibition” value was -5% and the Z score is recorded as 0.61.

Consider `CN1C(=O)C(c2c[nH]c3ccc(Br)cc23)N(C)C(=O)C1c1c[nH]c2ccc(Br)cc12` (centres undefined), for which the “% Inhibition” value was -17% and the Z score was determined as 2.03.

Turning to `CO[C@H]1C[C@@H]1C(=O)N1CCn2c(cnc2C(F)(F)F)C1`, the “% Inhibition” value was determined as 3% and the Z score is given as -0.26.

For the molecule `Cn1cc(-c2nc([C@@H]3COCCN3Cc3ccc(F)cc3)no2)cn1`, the “% Inhibition” value turned out to be 5% and the Z score is listed as -0.69.

For the molecule `COCCOc1nc(-c2cccs2)n(-c2ccc(NC(=O)c3ccc(F)cc3)cc2)n1`, the “% Inhibition” value was -6% and the Z score was 0.88.

Turning to `Cc1c([C@H]2CC(=O)Nc3n[nH]c(C4CCC4)c32)c(=O)n(-c2ccccc2)n1C`, the “% Inhibition” value was -12% and the Z score is given as 2.51.

With `CO[C@H]1C[C@@H](O)C12CCN(C(=O)Cc1ccc(CO)cc1)CC2`, the “% Inhibition” value is recorded as -23% and the Z score was determined as 2.7.
